# The other results are listed elsewhere or left out.
# Tested on: T1, C. trachomatis L2/434/Bu expressing GFP (CTL2-GFP)
# T1 construct: L2/434/Bu GFP intracellular growth in HeLa cells
# Set-up: species or system HeLa; C. trachomatis total inclusion area by high-content imaging, normalised to DMSO
# Conditions: total inclusion area; 28.5 h, 10 µM; inhibitor
# Summary of the method: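 Bulk GFP and resorufin signals were read first. Wells were then fixed, stained with Hoechst and imaged to detect GFP inclusions and host nuclei. MICs followed the previously described calculation.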
row,SMILES,% of control remaining
1,O=C(N/N=C\c1cccs1)c1n[nH]c2c1CCCC2 [CBK261667],109.251
2,O=C(c1c[nH]c2ccccc12)N1CCc2ccccc2C1 [CBK200331],94.5145
3,Cc1nc(COC(=O)c2ccc(C#N)c(C)n2)cs1 [CBK297775],75.2049
4,O=C(c1cccnc1)N1CCN(C2CC(=O)N(c3ccc(F)cc3)C2=O)CC1 (centres unmarked) [CBK270049],93.724
5,O=C(C(c1ccccc1)c1ccccc1)N1CCC2(CCNC2)C1 (centres unmarked) [CBK156729C],110.78
6,COc1ccc(C)cc1NC(=O)c1cnc2sc(C)cn2c1=O [CBK287714],114.517
7,CC(=O)c1nnnn1C(C)(C)Cc1ccccc1 [CBK022088],70.3611
8,Cc1ccc(NS(=O)(=O)c2c(Br)sc3ccnc(N4CCN(C)CC4)c23)cc1 [CBK034654C],73.1487
9,CN(CC(=O)Nc1nnc[nH]1)S(=O)(=O)c1ccc(Br)cc1 [CBK268618],112.395
10,CCn1c(C)cc2cc(NC(=O)c3cnc(C)nc3C)ccc21 [CBK283260],80.7304
11,CSc1ccc(-c2nc(C)c(C(C)=O)n2O)cc1 [CBK288356],114.517
12,CC1(C)CC(=O)c2sc(NC(=O)c3ccc4ncccc4c3)nc2C1 [CBK144105],99.8219
13,CN(Cc1ccc(-c2ccc(S(C)(=O)=O)cc2)nc1)C1CCN(C(=O)c2ccc(Cl)c(Cl)c2)CC1 [CBK164101T],74.6799
14,COC(=O)CCn1c(-c2ccncc2)cc2cccnc21 [CBK282592],54.8427
15,O=C(c1ccco1)N1CCN(c2cncc(-c3cccc4cccnc34)n2)CC1 [CBK037339],81.5634
16,CCOc1ccc(-c2ccnc(NCCNC(C)=O)n2)cc1C(=O)O [CBK306898],85.8255
17,O=C(Nc1ccccc1F)C1CCCN1c1nc(O)cc(C(F)(F)F)n1 (centres unmarked) [CBK004307],90.9804
18,CS(=O)(=O)N1CC2(CCN(Cc3cccc(C(F)(F)F)c3)CC2)c2ccccc21 [CBK126670],95.9609
19,O=C(NCCCNC(=O)c1ccc(Cl)cc1Cl)c1ccncc1 [CBK269372],67.5739
20,Cc1nc(CC(=O)Nc2ccc(N3CCOCC3)cc2)cs1 [CBK304339],44.8191
21,CNC(=O)c1nc(NC)oc1C [CBK059214],88.5503
22,O=C1CC(c2ccccc2)CC(=O)C1=CNCc1ccccn1 (centres unmarked) [CBK262521],33.6244
23,COc1ccc(Cl)cc1S(=O)(=O)N1CCC(C(=O)NCCCO)CC1 [CBK269835],74.5558
